Source: PMC4336329 (PLoS ONE, 2015)
Among all 310,000 compounds or so, about 14,000 (4.5%) showed an effect of 50% or more. The effect is printed as a negative number. The list shows a part of the results.

The compounds below were run against human ether-à-go-go-related gene (hERG) potassium channel (human, UniProt Q12809) (assay: primary screen, population patch clamp on CHO cells stably expressing hERG).
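Further: peak tail current of the secondary pulse compared with the same well before compound.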

Sequence of human ether-à-go-go-related gene (hERG) potassium channel (Q12809 whole entry, looked up): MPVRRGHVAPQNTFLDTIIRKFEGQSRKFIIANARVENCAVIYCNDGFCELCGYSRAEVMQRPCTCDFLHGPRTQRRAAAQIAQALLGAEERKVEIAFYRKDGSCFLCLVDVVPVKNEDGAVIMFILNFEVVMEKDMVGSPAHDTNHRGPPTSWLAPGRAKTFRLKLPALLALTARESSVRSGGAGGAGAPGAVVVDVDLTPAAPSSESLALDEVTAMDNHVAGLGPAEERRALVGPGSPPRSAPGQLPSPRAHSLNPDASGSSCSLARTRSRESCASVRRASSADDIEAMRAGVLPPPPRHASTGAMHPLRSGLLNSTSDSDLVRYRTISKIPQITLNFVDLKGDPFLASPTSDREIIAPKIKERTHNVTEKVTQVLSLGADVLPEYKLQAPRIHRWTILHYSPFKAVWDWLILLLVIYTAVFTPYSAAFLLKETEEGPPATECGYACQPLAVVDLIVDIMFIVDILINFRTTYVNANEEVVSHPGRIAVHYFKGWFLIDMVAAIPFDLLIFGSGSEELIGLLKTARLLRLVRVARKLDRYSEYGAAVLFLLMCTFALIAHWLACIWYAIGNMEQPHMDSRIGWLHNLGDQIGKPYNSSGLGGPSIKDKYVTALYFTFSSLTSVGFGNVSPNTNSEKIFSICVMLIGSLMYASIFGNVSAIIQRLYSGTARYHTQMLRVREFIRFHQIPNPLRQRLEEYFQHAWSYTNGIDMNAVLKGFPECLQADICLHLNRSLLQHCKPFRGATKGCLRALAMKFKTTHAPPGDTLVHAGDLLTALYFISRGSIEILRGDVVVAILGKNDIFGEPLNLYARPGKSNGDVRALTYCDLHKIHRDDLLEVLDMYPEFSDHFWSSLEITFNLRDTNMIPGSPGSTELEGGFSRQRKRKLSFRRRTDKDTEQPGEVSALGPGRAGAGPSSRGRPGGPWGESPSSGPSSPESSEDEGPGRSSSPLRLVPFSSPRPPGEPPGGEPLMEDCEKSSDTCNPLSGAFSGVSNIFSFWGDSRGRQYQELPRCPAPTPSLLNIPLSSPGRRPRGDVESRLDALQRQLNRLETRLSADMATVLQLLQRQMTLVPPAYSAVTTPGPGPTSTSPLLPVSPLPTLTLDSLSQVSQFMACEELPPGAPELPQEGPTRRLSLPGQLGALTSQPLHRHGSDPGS

First: Cc1c(Cl)cccc1NC(=O)CC(C(=O)O)C1CCCO1 (stereo not drawn)
Second: COC(=O)c1ccccc1NC(=O)CSc1ccc(C)cc1
The “hERG current change (%, negative = inhibition) at 10uM” value of the first is lower: -6.16% for the first, -0.828% for the second.

Going from `CC1CC(C)CN(CC(=O)N2CCc3[nH]c4ccccc4c3C2)C1` (stereo not drawn) to `O=C(Nc1ccc2[nH]c3c(c2c1)CCCC3)c1ccco1`, the “hERG current change (%, negative = inhibition) at 10uM” value rises from -30.3% to -3.4%.

Going from `COc1ccc(/C=C2\CN(Cc3ccccc3)C/C(=C\c3ccc(OC)cc3)C2=O)cc1` to `COc1ccc(/C=N/N=C2\SC(CC(=O)O)C(=O)N2c2ccccc2)c(OC)c1` (stereo not drawn), the “hERG current change (%, negative = inhibition) at 10uM” value rises from 3.8% to 4.13%.

Going from `CC(=O)c1cc(CN2CCC(n3nccc3NC(=O)c3ccccc3C)CC2)cs1` to `COc1c(N2CCN(C(=S)NCc3ccccc3)C(C)C2)c(F)cc2c(=O)c(C(=O)O)cn(C3CC3)c12` (stereo not drawn), the “hERG current change (%, negative = inhibition) at 10uM” value rises from -57.8% to -4.47%.

Going from `COC(=O)c1cn(-c2ccc(F)cc2)c(=O)c2ccccc12` to `Cn1nc(-c2ccc(C(=O)Nc3ccc(F)cc3)cc2)c2ccccc2c1=O`, the “hERG current change (%, negative = inhibition) at 10uM” value rises from -17.2% to -13%.

First: CCc1ccc(N(C(C)=O)c2nc(CCl)cs2)cc1
Second: CC(=O)Nc1ccccc1OCC(=O)NCCc1ccc(Cl)cc1Cl
The “hERG current change (%, negative = inhibition) at 10uM” value of the first is lower: -15.1% for the first, -10% for the second.

First: O=C(CCl)NC1(C(F)(F)F)C(=O)Nc2c1c(=O)[nH]c(=O)n2-c1ccccc1 (stereo not drawn)
Second: CCCSc1nc2c(=O)[nH][nH]c(=O)c2n1Cc1ccccc1
The “hERG current change (%, negative = inhibition) at 10uM” value of the first is higher: 8.08% for the first, 1.87% for the second.

Compared with `COc1ccc(C(=O)OCCCOC(=O)c2ccc(OC)cc2OC)c(OC)c1`, `COc1cc2c(cc1OC)CN(CCC(C)c1ccc(Cl)cc1)CC2.O=C(O)/C=C\C(=O)O` (stereo not drawn) is lower in “hERG current change (%, negative = inhibition) at 10uM” value: 7.08% for the first, -72.1% for the second.

Going from `CC1CCCCC1NC(=O)C1CCC(CNS(=O)(=O)c2ccc(F)cc2)CC1` (stereo not drawn) to `O=C(C1CCC(CNS(=O)(=O)c2cccc3cccnc23)CC1)N1CCCC1` (stereo not drawn), the “hERG current change (%, negative = inhibition) at 10uM” value falls from 11.5% to 8.93%.

Going from `Cc1ccccc1OCCN1C(=O)C(=O)c2cccc(C)c21` to `Cc1cc2ccccc2c(=O)n1CC(=O)N1CCN(c2cccc(Cl)c2)CC1`, the “hERG current change (%, negative = inhibition) at 10uM” value falls from 10.8% to -2.43%.

Compared with `O=C(NC1=NCCS1)c1cc(-c2cccs2)nc2ccccc12`, `CC(C)n1ncc2c(C(=O)Nc3ccc(S(N)(=O)=O)cc3)cc(C3CC3)nc21` is higher in “hERG current change (%, negative = inhibition) at 10uM” value: -9.23% for the first, 0.233% for the second.

Going from `CC(=O)Nc1ccc(Nc2nc3c(S(=O)(=O)c4ccc(C)c(C)c4)nnn3c3ccccc23)cc1` to `Cc1ccc(-n2c(SCC(=O)Nc3ccc4c(c3)OCO4)nnc2-c2ccccn2)cc1`, the “hERG current change (%, negative = inhibition) at 10uM” value falls from 23.3% to 4.28%.

Going from `CCN(CC)S(=O)(=O)c1cccc(C(=O)NNC(=O)c2ccc3[nH]c(=O)c(=O)[nH]c3c2)c1` to `CN(CCO)c1ccc(-c2n[nH]c(=O)c3ccccc23)cc1[N+](=O)[O-]`, the “hERG current change (%, negative = inhibition) at 10uM” value falls from 16.1% to -7.99%.

Going from `CCCn1c(C(O)c2ccc3c(c2)OCO3)nc2ccccc21` (stereo not drawn) to `COc1cccc2cc(C(C)N(CCCN3CCOCC3)C(=S)Nc3cccc(C)c3)oc12` (stereo not drawn), the “hERG current change (%, negative = inhibition) at 10uM” value rises from -18% to 14.8%.

Going from `COc1cc(/C=C2/C(=O)NN(c3cccc(C)c3)C2=O)cc([N+](=O)[O-])c1O` to `Cc1nn(-c2cc(N3CCNCC3)ccc2[N+](=O)[O-])c(=O)c2ccccc12`, the “hERG current change (%, negative = inhibition) at 10uM” value rises from -19.1% to -11.4%.

First: COc1ccccc1OCC(=O)[O-].[Na+]
Second: COc1cc(SC)ccc1C(=O)Nc1ccccn1
The “hERG current change (%, negative = inhibition) at 10uM” value of the first is lower: 4.6% for the first, 7.08% for the second.

Going from `COc1ccc(NC(=O)Cn2c(=O)oc3cc(S(=O)(=O)N4CCCC4)ccc32)cc1` to `COc1ccc(N2C(=O)C3CCCN3C2c2cccc(F)c2)cc1Cl` (stereo not drawn), the “hERG current change (%, negative = inhibition) at 10uM” value falls from 5.26% to -11.8%.

First: CC(C)CN(CC(C)C)C(=O)C12CCC(C)(C(=O)O1)C2(C)C (stereo not drawn)
Second: CCCCn1c(N)c(N(CC(C)C)C(=O)C2CCN(c3ncnc4sc(C)c(C)c34)CC2)c(=O)[nH]c1=O
The “hERG current change (%, negative = inhibition) at 10uM” value of the first is higher: 5.16% for the first, -26.4% for the second.

Compared with `CC(NC(=O)Cc1ccc(-c2ccccc2)cc1)c1ccccc1` (stereo not drawn), `O=C(CCCSc1nc2ccccc2[nH]1)NC(c1ccccc1)c1ccccc1` is lower in “hERG current change (%, negative = inhibition) at 10uM” value: 5.89% for the first, -32.6% for the second.

First: CC1=C[C@@H](C)[C@@H](c2ccccc2)OC1=O
Second: Cc1cc(=O)[nH]c(N2CCc3ccccc3C2)n1
The “hERG current change (%, negative = inhibition) at 10uM” value of the first is higher: 3.06% for the first, -5.68% for the second.

First: Cc1nc2nc(C)c(NS(=O)(=O)c3ccc(Cl)cc3)c(=O)n2[nH]1
Second: CCOC(=O)CSC1=C(C#N)C(=O)NC(c2ccc(OC)cc2)S1 (stereo not drawn)
The “hERG current change (%, negative = inhibition) at 10uM” value of the first is lower: 7.32% for the first, 19.9% for the second.

Going from `CCOc1ccc(OCC)c(NC(=O)CSc2nnc(C3CC3)n2CC)c1` to `CC(C)OCCCNC(=O)c1c(N)n(CC2CCCO2)c2nc3ccccc3nc12` (stereo not drawn), the “hERG current change (%, negative = inhibition) at 10uM” value rises from -19% to -17.6%.

First: CC(=O)NC12CC3CC(C1)CC(C(=O)OCC(=O)Nc1c(F)cccc1F)(C3)C2
Second: Cc1nn(Cc2ccc(Cl)cc2Cl)c(C)c1NC(=O)NC12CC3CC(CC(C3)C1)C2
The “hERG current change (%, negative = inhibition) at 10uM” value of the first is higher: 10.7% for the first, 7.38% for the second.

Going from `CCCCCSc1cc(OC)c(CCNC)cc1OC.O=C(O)/C=C\C(=O)O` to `COC(=O)c1ccccc1Oc1ccc(NC(=O)C(C)(C)CCl)cc1`, the “hERG current change (%, negative = inhibition) at 10uM” value rises from -48.2% to -2.32%.

Compared with `O=C(Nc1ccc(N2CCOCC2)nc1)c1c(F)cccc1F`, `N#C/C(=C\c1cc2ccccc2nc1N1CCOCC1)C(=O)Nc1ccc(N2CCOCC2)cc1` is lower in “hERG current change (%, negative = inhibition) at 10uM” value: 16.5% for the first, -24.2% for the second.

First: Cc1cccc(NC(=O)c2c(F)c(F)c(F)c(F)c2F)c1
Second: C/C(NC(=O)c1cccs1)=C1\C(=O)C[C@@H]2[C@H]1C2(C)C
The “hERG current change (%, negative = inhibition) at 10uM” value of the first is higher: 0.917% for the first, -19.6% for the second.

First: CN(CC(=O)NC(=O)NC1CCCCC1)Cc1ccccc1
Second: CCC(C)[C@H](N)c1cn([C@@H](Cc2cc3ccccc3[nH]2)C(=O)N2CCNCC2)nn1.Cl (stereo partly drawn)
The “hERG current change (%, negative = inhibition) at 10uM” value of the first is lower: -8.93% for the first, 18.5% for the second.
